# From the RNAGym collection of RNA variant scans (doi:10.1093/nar/gkz1192)
# The source gives no read counts; variants with many changes may rest on few reads.
# B1: CPEB3 Ribozyme (parent)
# chain: UAACAGGGGGCCACAGCAGAAGCGUUCACGUCGCAGCCCCUGUCAGAUUCUGGUGAAUCUGCGAAUUCUGCUGUAUAUCUC
# Variants of: B1
# Test: self-cleavage, relative activity (ratio to wild type); higher = more cleavage; in vitro, sequencing
# In short: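 Relative activity compares each variant's cleaved/total read fraction with that of the unmutated ribozyme. To get these fractions, barcoded CPEB3 ribozyme libraries from rounds of error-prone PCR were transcribed with T7 RNA polymerase for 5 hours at 37°C and then given 15 min of DNase I treatment before EDTA was added. The RNAs were reverse transcribed with template switching and sequenced on Illumina, and DNA sequencing linked barcodes to variants. A minimum of 5 reads applied, and three batches were averaged.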
row,Variant,self-cleavage
1,UAACAGGGGGCCACGGCAGAAGCGUUCACGUCGCGGCCCCUGUCAGAUUCUGGUGAACCUGCGAAUUCUGCUGUAUAUCUC [A15G A35G U58C],0.38
2,UAACAGGGGGCCACGGCAGAAGCGUUCGCGUCACAGCCCCUGCCAGAUUCUGGUGAAUCUGCGAACUCUGCUGUAUAUCUC [A15G A28G G33A U43C U66C],0.16
3,UAACAGGGGGCCACGGCAGAAGCGUUCGCGUCGCAGCCCCUGUCGGAUCCUGGUGAAUAUGCGAAUUCUGCUGUAUAUCUC [A15G A28G A45G U49C C59A],0.27
4,UAACAGGGGGCCACGGCAGAAGCGUUCGCGUCGCAGCCCCUGUCAGAUUCUGGUGAAUCUGCGAAUUCUGCAGUAUUUCUC [A15G A28G U72A A77U],0.32
5,UAACAGGGGGCCACGGCAGAAGCGUUCGCGUCGCAGCCCCUGUCAGGUACUGGUGAAUCUGCGAAUUCUGCUGUGUAUCUC [A15G A28G A47G U49A A75G],0.16
6,UAACAGGGGGCCACGGCAGAAGCGUUCACGUCGCGGCCCCUGUCAGAUUCUAGUGGAACUGCGAAUUCUGCUGUAUAUCUC [A15G A35G G52A A56G U58A],0.25
7,UAACAGGGGGCCACGGCAGAAGCGUUCUCGUCGCAGCCCCUGUCAGAUUCUGGUGAAUCUGCGAAUUCUGCUGAAUAUCUC [A15G A28U U74A],0.45
8,UAACAGGGGGCCACGGCAGAAGCGUUCGCGUCGCUGCCCCUGUCAGAUUCUGGUGAAUCCGCGAAUUCUGCAGUAUAUCUC [A15G A28G A35U U60C U72A],0.08
9,UAACAGGGGGCCACGGCAGAAGCGUUCACGUCGCGGCCCCCGUCAGAUUCUGGUGAACCUGCGGAUUCUGCUGUAUAUCUC [A15G A35G U41C U58C A64G],0.41
10,UAACAGGGGGCCACGGCAGAAGCGUUCACGUCGCGGCCCCUGUCAGAUUCUGGUGAAUCUGCGGAUUCUGCUGUAUAUCUC [A15G A35G A64G],0.63
11,UAACAGGGGGCCACGGCAGAAGCGUUCUCGUCGCUGCCCCUGUCAGAUUCUGGUGAAUCUGCGGAUUCUGCUGUAUAUCUC [A15G A28U A35U A64G],0.13
12,UAACAGGGGGCCACGGCAGAAGCGUUCACGUCGCGGCCUCUGUCAGAUUCUGGUGAAUCUGCGAAUUCCGCAGUAUAUCUC [A15G A35G C39U U69C U72A],0.16
13,UAACAGGGGGCCACGGCAGAAGCGUUCUCGUCGCAGCCCCUGCCAGAUUCUGGUGAAUCUGCGAAUUCAGCUGUAUAUCCC [A15G A28U U43C U69A U80C],0.07
14,UAACAGGGGGCCACGGCAGAAGCGUUCCCGUCGCAGCCCCUGUCAGAUUCUGGUGAGUCUGCGUAUUCUGCUGUAUAUCUC [A15G A28C A57G A64U],0.16
15,UAACAGGGGGCCACGGCAGAAGCGUUCACGUCGCGGCCCCUGCCAGAUUCUGGUGAAUCUGCGACUUCUGCUGCAUAUCUC [A15G A35G U43C A65C U74C],0.14
16,UAACAGGGGGCCACGGCAGAAGCGUUCCCGUCGCAGCCCCCGUCAGAUUCUGGUGAAUCUGCGAAUUCUGCUCUAUAUCUC [A15G A28C U41C G73C],0.44
17,UAACAGGGGGCCACGGCAGAAGCGUUCACGUCGCGGCCCCUGUCAGAUACUGGUGAAUCUGCGUAUCCUACUGUAUAUCUC [A15G A35G U49A A64U U67C G70A],0.1

row,Variant,self-cleavage
1,UAACAGGGGGCCACGGCAGAAGCGUUCGCGUCGCAGCCCCCGUCAGAUUCAGGUGAAUCUGCGAUUUCUGCUGUAUAUCUC [A15G A28G U41C U51A A65U],0.16
2,UAACAGGGGGCCACGGCAGAAGCGUUCGCGUCGCAGCCCCUGUCGGAUUCUGGCGAAUCUACGAAUUCUGCUGUAUAUCUC [A15G A28G A45G U54C G61A],0.24
3,UAACAGGGGGCCACGGCAGAAGCGUUCACGUCGCGGCCCCUGUCAGAUCCUGGUGAAUCUGCGAAUUCUGCUGUAUAUCUC [A15G A35G U49C],0.3
4,UAACAGGGGGCCACGGCAGAAGCGUUCGCGUCGCAGCCCCAGUCAGAUUAUGGUGAAUCUGCGAAUUCUGCUGUUUAUCUC [A15G A28G U41A C50A A75U],0.07
5,UAACAGGGGGCCACGGCAGAAGCGUUCUCGUCGCAGCCCCUGUCAGUUUCUGGUGAAUCUGCGAAUUCUGCUGUGUAUCUC [A15G A28U A47U A75G],0.15
6,UAACAGGGGGCCACGGCAGAAGCGUUCGCGUCGCAGCCCCUGUUAGAUUCUGGUGAAUCUGCGAAUUCUGCCGUAUAUCUC [A15G A28G C44U U72C],0.31
7,UAACAGGGGGCCACGGCAGAAGCGUUCGCGUCGCAGCCCCUGUCAGAUUCUGGUGAAUCUGCGAAUUCUGCCGUAUAUUUC [A15G A28G U72C C79U],1.15
8,UAACAGGGGGCCACGGCAGAAGCGUUCCCGUCGCAGCCCCUGUCAGAUCCUGGCGAAUCUGCGAAUUCUGCUGUAUAUCUC [A15G A28C U49C U54C],0.17
9,UAACAGGGGGCCACGGCAGAAGCGUUCUCGUCGCAGCCCCUGUCAGAUACUGGUGAAUCUACGAAUUCUACUGUAUGUCUC [A15G A28U U49A G61A G70A A77G],0.1
10,UAACAGGGGGCCACGGCAGAAGCGUUCACGUCGCGGCCCCUGUCAGAUUCUGGUGAAUCCGCGAAUUCUGCUGUAUAUCUC [A15G A35G U60C],0.18
11,UAACAGGGGGCCACGGCAGAAGCGUUCACGUCGCGGCCCCUGUCAGAUUCUGGUGAAUCAGCGAAUUCUGCUGUAUAUCUC [A15G A35G U60A],0.43
12,UAACAGGGGGCCACGGCAGAAGCGUUCUCGUUGCAGCCCCUGUCAGAUUCUGGUGAAUCUGCGAAUUCUGCUGUAUAUCUC [A15G A28U C32U],0.3
13,UAACAGGGGGCCACGGCAGAAGCGUUCGCGUCGCAGCCCCUGUAAGAUUCUGGUGAAUCUGCGAAUUCUGCCGUAUAUCUC [A15G A28G C44A U72C],0.45
14,UAACAGGGGGCCACGGCAGAAGCGUUCACGUCGCGGCCCCUGUCAGAUUCUGGUGAGUCUACGAAUUCUGCUGUAUAUCUC [A15G A35G A57G G61A],0.36
15,UAACAGGGGGCCACGGCAGAAGCGUUCGCGUCGCAGCCCCUGUCAGAUUCAGAUGAAUCUGCGAAUUCUGCCGUAUAUCUC [A15G A28G U51A G53A U72C],1.08
16,UAACAGGGGGCCACGGCAGAAGCGUUCACGUCGCGGCCCCUGUCAGAUUCUGGUGAAUCGGCGAAUUCUGCUGUAUAUCCC [A15G A35G U60G U80C],0.1
17,UAACAGGGGGCCACGGCAGAAGCGUUCUCGUCGCAGCCCCUGUCAGAUUCCGGUGAAUCUGCGAAUUCUGCUGUAUAUCUC [A15G A28U U51C],0.41
